Experimental findings from PubChem BioAssay AID1346428 (National Center for Advancing Translational Sciences (NCATS), 2018) are described below.

Molecules are shown by their SMILES. Out of some 48,000 compounds screened, about 1,200 (2.5%) were called active. Roughly 2% stayed inconclusive and do not appear here.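 Rule for the calls: active = activation of at least 60% and not above a set upper limit (about 1 call in 100 departs from these limits); inconclusive = activation of 40% to 60%, or above that upper limit; inactive = activation under 40%.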 Some of the results follow.

UniProt O75388, sequence (O75388 whole entry, looked up): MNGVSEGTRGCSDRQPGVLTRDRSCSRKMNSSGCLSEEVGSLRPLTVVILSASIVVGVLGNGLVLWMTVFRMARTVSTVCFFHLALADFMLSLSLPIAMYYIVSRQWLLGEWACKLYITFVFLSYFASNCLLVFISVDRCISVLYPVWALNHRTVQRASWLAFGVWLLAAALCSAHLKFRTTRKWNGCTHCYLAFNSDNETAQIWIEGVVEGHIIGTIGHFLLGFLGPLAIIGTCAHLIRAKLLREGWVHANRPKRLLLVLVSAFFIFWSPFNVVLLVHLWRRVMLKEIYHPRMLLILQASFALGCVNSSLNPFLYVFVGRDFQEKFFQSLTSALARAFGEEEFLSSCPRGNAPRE

This assay concerns the target Probable G-protein coupled receptor 32 (Homo sapiens) (UniProt O75388). Nature of the assay: qHTS for Agonists of Human Resolvin D1 Receptor DRV1. Note: 0% is about no effect. The settings on record: CHO-K1 GPR32 beta-arrestin PathHunter luminescence, 90 min; at 76.9 µM; hits give high values; zero percent set by DMSO-only wells. Summed up:
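Using DMSO wells as EC0, agonist-induced signal was taken as chemiluminescence from beta-Gal reconstituted upon beta-arrestin recruitment to GPR32 in CHO-K1 cells after 90 min compound treatment.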
A general note: Quantitative high-throughput screening tests each substance at several concentrations.
Consider `COc1ccccc1CNC(=O)c1cc(-c2ccccc2)n[nH]1`, for which the activation is inactive: -2.69%. In the case of `O=C(CCS(=O)(=O)c1nc(-c2cccs2)cc(C(F)(F)F)n1)Nc1cccc(O)c1` it was inactive: -47.4%. Then `Cc1ccc(N2C(=O)C(CC(=O)Nc3ccccc3)N(CCC3=CCCCC3)C2=O)cc1` (stereo not given), with inactive: 32.5%; and `O=C(NCCCN1CCN(c2cccc(Cl)c2)CC1)c1nnc(Cc2ccc(F)cc2Cl)o1`, with inactive: 20.8%. Consider `Cc1ccc2nc(NC(=O)CSc3ncc(C(=O)Nc4ccccc4)c(=O)n3C)sc2c1`, for which the activation is inactive: -6.22%. As for `CCc1ccc(S(=O)(=O)c2cnc(SCC(=O)Nc3ccc(OC)cc3OC)[nH]c2=O)cc1`, the activation was inactive: 8.89%. For `CCCc1cc(=O)oc2cc(C)c3c(-c4ccccc4)c(C)oc3c12`, the activation is inactive: -2.18%. In the case of `CC(C)NC(=O)c1sc2ncccc2c1-n1cccc1`, the activation was inactive: 9.42%.

For `CCOc1ccccc1NC(=O)CN1C(=O)C(=O)c2ccccc21`, the activation was inactive: -73.1%. Then `CCOc1ccccc1N(CC)C(=O)c1cc2ccc3cccnc3c2[nH]1`, with inactive: -14.3%. Regarding `Cn1c2ccc(F)cc2c2nnc(SCCN3CCCCC3)nc21`, the activation was inactive: 33.9%. Then `CCOc1ccc(CCNC(=O)c2sc3nc4n(c(=O)c3c2C)CCCC4)cc1`, with inactive: 2.42%; and `Cc1sc2c(c1C)c(=O)n(Cc1ccccc1)c(=O)n2CC(=O)Nc1cccc(Cl)c1`, with inactive: 6.19%. In the case of `O=C(O)Cn1nc(N2CCN(c3ccccc3)CC2)ccc1=O` it was inactive: 22.6%.

As to `CC1CCC(NC(=O)CCc2cn(Cc3ccc(F)cc3)c3ccccc23)CC1` (stereo not given), the activation was inactive: -26.4%. `COc1ccc(NC(=O)c2nc(S(=O)(=O)Cc3ccc(C)cc3)ncc2Cl)cc1`: the activation was inactive: -26.6%. In the case of `Cc1ccccc1C(=O)NCc1ccc2c(c1)CCN2C(=O)c1ccc(F)cc1` it was inactive: -12.3%. In the case of `CCOC(=O)Cn1cnc2c(cnn2-c2ccc(C)c(C)c2)c1=O` it was inactive: 22.2%; in that of `Cc1nn2c(=O)cc(COC(=O)COc3ccccc3C)nc2s1`, inactive: 0%; in that of `CC(C)c1ccc2oc3nc(N)c(C(=O)O)cc3c(=O)c2c1`, active: 104%. Take `Cc1cccc(CSCc2ccc(C(=O)NCCc3ccccc3)o2)c1`: the activation was inactive: 34.9%.

Turning to `O=C(c1cc2ccccc2oc1=O)N1CCN(c2ccc(F)cc2)CC1`, the activation is inactive: 8.02%. With `Cc1cc(C)c2c(CC(=O)Nc3ccc(S(=O)(=O)N4CCCCC4)cc3)coc2c1`, the activation was inactive: -16.5%. Consider `COc1ccccc1CCNC(=O)Cc1c(C)c2cc3c(C)coc3cc2oc1=O`, for which the activation was inactive: -18.7%. For the molecule `NC(=O)c1cc[n+](CC2=C(C(=O)O)N3C(=O)[C@@H](NC(=O)[C@@H](c4ccccc4)S(=O)(=O)[O-])[C@H]3SC2)cc1`, the activation was inactive: 0.31%.
